Laboratory results published in patent US7807641B2, “Methods and reagents for treating glucose metabolic disorders” (Curis, Inc., priority 1999, dated 2010).
Numbered stars: 1 amine (or outer) side, 2 acyl side, 3 side chain; on linkers, the order of the positions; unused ones are H or OH. Bridge positions count the residues as written; N and C are the ends. Square brackets hold non-standard residues; d marks the D form. Peptide text beside a SMILES is read from it. I, II: the chains in the order shown. Actinocin(9to1) = Cc1c2oc3c(C)ccc(C(=O)[*:1])c3nc-2c(C(=O)[*:2])c(N)c1=O; NMeV = CN[C@H](C(=O)O)C(C)C; Sar = CNCC(=O)O

System: E21 fetal islets
Assay: Glucose-stimulated insulin release (static insulin release, RIA) in cultured e21 fetal rat islets

| SMILES | inhibition of the gain of function induced by PYY (insulin release) (200 L/ml PYY for 5 days, actinomycin D at 0.1 μg/ml for the last 16 hours) | insulin exocytosis in islets treated with actinomycin D (1 μM IBMX, PYY 5 days, actinomycin D 0.1 μg/ml last 16 hours) |
| --- | --- | --- |
| Cc1c2oc3c(C)ccc(C(=O)N[C@@H]4C(=O)N[C@H](C(C)C)C(=O)N5CCC[C@H]5C(=O)N(C)CC(=O)N(C)[C@@H](C(C)C)C(=O)O[C@@H]4C)c3nc-2c(C(=O)N[C@@H]2C(=O)N[C@H](C(C)C)C(=O)N3CCC[C@H]3C(=O)N(C)CC(=O)N(C)[C@@H](C(C)C)C(=O)O[C@@H]2C)c(N)c1=O [Actinomycin D, actinomycin D] (I: T[dV]P[Sar][NMeV] / II: T[dV]P[Sar][NMeV]; ester I:1-I:C, II:1-II:C; linker I:N-II:N via Actinocin(9to1)) | completely inhibit the gain of function induced by PYY | – |
| CC(C)Cn1c(=O)n(C)c(=O)c2[nH]cnc21 [IBMX] | – | can still induce insulin exocytosis |
